Assay results: PubChem BioAssay AID1159614 (National Center for Advancing Translational Sciences (NCATS), 2016)
The whole screen tested about 45,000 compounds, of which about 65 (0.1%) were called active. Calls come from the whole dose curve; as a rule, active = well fitted activation curve with a large enough effect; inconclusive = small, poorly fitted or top-dose-only effect; inactive = no such curve, though single readings can be large or run the other way. The list shows a part of the results.

molecular target: Galactocerebrosidase (Homo sapiens) (UniProt P54803); test: A Novel Cell-Based Assay to Identify Small Molecules for B -Galactocerebrosidase; settings: 145M-Twi-hGALC-G270D cells (Twitcher mouse brain line with human GALC G270D), HMU-beta-Gal fluorescence, 48 h; series mostly up to 57.5 µM; activation: at the top concentration; note: nearly all actives have a fitted effect of over 65% in size; for activation: 0% is about no effect
UniProt P54803, sequence (P54803 whole entry, looked up): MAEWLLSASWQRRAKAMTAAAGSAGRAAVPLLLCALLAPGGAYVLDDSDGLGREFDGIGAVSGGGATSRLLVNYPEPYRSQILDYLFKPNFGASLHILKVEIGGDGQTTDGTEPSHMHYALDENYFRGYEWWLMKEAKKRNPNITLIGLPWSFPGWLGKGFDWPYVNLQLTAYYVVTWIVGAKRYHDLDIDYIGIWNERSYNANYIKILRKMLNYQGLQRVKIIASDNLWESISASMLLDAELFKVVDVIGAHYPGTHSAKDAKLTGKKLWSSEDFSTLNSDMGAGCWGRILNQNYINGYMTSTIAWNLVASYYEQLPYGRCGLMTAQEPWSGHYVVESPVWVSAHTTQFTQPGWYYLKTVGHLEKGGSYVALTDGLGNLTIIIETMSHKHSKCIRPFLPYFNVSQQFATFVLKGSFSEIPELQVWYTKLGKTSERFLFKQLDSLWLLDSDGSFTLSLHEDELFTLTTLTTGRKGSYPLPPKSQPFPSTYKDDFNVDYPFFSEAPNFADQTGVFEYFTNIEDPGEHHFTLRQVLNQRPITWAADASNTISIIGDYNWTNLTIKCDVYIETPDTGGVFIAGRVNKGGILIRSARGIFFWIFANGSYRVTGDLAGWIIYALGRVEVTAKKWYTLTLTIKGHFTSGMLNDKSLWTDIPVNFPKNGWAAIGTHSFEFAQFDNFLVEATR
How it was run: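 Mutant human GALC (G270D), stably expressed in a Twitcher mouse brain cell line lacking endogenous GALC, is measured in live-treated cells via 6-hexadecanoylamino-4-methylumbelliferyl-β-galactoside hydrolysis (0.1 mM final, pH 5.2) with fluorescent detection.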
Potency is the fitted concentration of half-maximal effect.

SMILES	activation	Potency
CCc1ccc(NCc2cc3cc4c(cc3n(CC(=O)Nc3ccccc3OC)c2=O)OCCO4)cc1	inactive: -1.72%	
Cc1nn(-c2ccccc2)c2c1cc1c(=O)[nH]c(=O)nc-1n2-c1cccc(Cl)c1	inactive: -13.5%	
COc1ccccc1/C=C/c1nc(C#N)c(N2CCN(C)CC2)o1		active: 28.2 µM
COc1ccccc1NC(=O)CSc1nnc(NC(=O)NC2CCCCC2)s1	inactive: -13.4%	
Cc1ccc(CNC(=O)C2CCN(S(=O)(=O)c3cccc4nonc34)CC2)cc1	inactive: -0.17%	
Cc1cc(=O)c2cc(C(=O)Nc3ccc(C)c(C)c3)ccc2[nH]1	inactive: -15.3%	
CCc1ccccc1NC(=O)Cn1c(=O)n(CCCCCC(=O)NCc2ccc(C)cc2)c(=O)c2sccc21	inactive: 1.2%	
CCOC(=O)O[C@]1(C(=O)OCCl)CC[C@H]2[C@@H]3CCC4=CC(=O)C=C[C@]4(C)[C@H]3[C@@H](O)C[C@@]21C	inactive: -19.7%	
CN(C)[C@@H]1C(=O)C(C(N)=O)=C(O)[C@@]2(O)C(=O)C3=C(O)c4c(O)cccc4C[C@H]3C[C@@H]12	inactive: -16.8%	
O=C(c1ccc2c(c1)N(Cc1ccccc1F)C(=O)c1ccccc1S2(=O)=O)N1CCc2ccccc21	inactive: 2.67%	
CCC(Sc1nc2ccncc2[nH]1)C(=O)Nc1cc(Cl)ccc1C (centres undefined)	inactive: -9.19%	
COc1cc(Cl)c(C)cc1NC(=O)CSc1nc2c(c(=O)[nH]1)CCC2	inactive: -15.1%	
Cc1ccc(S(=O)(=O)CCC(=O)Nc2ccc(OC(F)(F)F)cc2)cc1	inactive: -6.08%	
Cc1cccc(NC(=O)Cn2ncc3c4ccccc4n(Cc4ccccc4)c3c2=O)c1C	inactive: -21%	
CN1C(=O)c2ccccc2C1=O	inactive: -6.53% [at 114 µM]	
CC(CC1c2ccccc2CCc2ccccc21)CN(C)C (centres undefined)	inactive: -19%	
CCc1ccc(S(=O)(=O)c2nnn3c2nc(N2CCOCC2)c2sccc23)cc1	inactive: -13.3%	
Cc1cc(-c2ccccc2)n2nc(-c3ccc(Cl)cc3)cc2n1	inactive: -16.6%	
Cc1cc(Br)ccc1NC(=O)C1CCCN(S(=O)(=O)c2cccc3nonc23)C1 (centres undefined)	inactive: -19.9%	
Cc1cc(N2CCC(C(=O)Nc3ccc(F)cc3C)CC2)n2nc(C)c(-c3ccc(Cl)cc3)c2n1	inactive: -7.44%	

SMILES	activation	Potency
Cc1ccc(N2CC(c3nc(-c4ccc(Cl)cc4)no3)CC2=O)cc1F (centres undefined)	inactive: -17.8%	
CC(=O)c1cccc(NS(=O)(=O)c2cc(-c3onc(C)c3C)ccc2C)c1	inactive: -41%	
COc1ccc(NC(=O)CSc2oc(-c3ccc(F)cc3)nc2S(=O)(=O)c2ccc(C)cc2)c(OC)c1	inactive: -8.82%	
Cc1sc2c(c1C)c(=O)n(-c1ccc(Cl)cc1)c(=O)n2Cc1cc(=O)n2cc(Br)ccc2n1	inactive: -10.7%	
COc1cc(Cl)c(NC(=O)c2cc(S(=O)(=O)N3CCCCC3)c[nH]2)c(OC)c1	inactive: -20.8%	
COc1ccc2cc3cc(C(=O)Nc4cc(C)c(Cl)cc4OC)oc3nc2c1	inactive: -0.0005%	
CCc1cccc(CC)c1NC(=O)C1CCC(CNS(=O)(=O)c2cccc3nsnc23)CC1 (centres undefined)	inactive: -13.2%	
CCOc1ccccc1NC(=O)CSc1nc2c(sc3ccccc32)c(=O)n1CCCC(=O)NC1CCCC1	inactive: -10.7%	
COc1cc(NC(=O)C2CCN(S(=O)(=O)c3ccc4c(c3)CCCC(=O)N4)CC2)cc(OC)c1	inactive: -16%	
CCOC(=O)c1c(S(=O)(=O)N2CCCC(C(=O)NCc3ccccc3Cl)C2)c(C)n(C)c1C (centres undefined)	inactive: -7.61%	
Cc1cccc(OCc2nc(CC(=O)Nc3ccc(C)cc3C)cs2)c1	inactive: -4.65%	
Cc1cccc(N2CCN(C(=O)c3cnn(-c4ccccc4Cl)c3C3CCN(C(=O)OC(C)(C)C)CC3)CC2C)c1 (centres undefined)	inactive: -15.1%	
CCN(c1ccccc1)S(=O)(=O)c1nnc(NC(=O)c2ccccc2)s1	inactive: 3.67%	
COc1cccc(CNC(=O)c2ccc(CNS(=O)(=O)c3ccc(C)cc3)cc2)c1	inactive: -37.8%	
O=C(Nc1ccccc1)N(Cc1c[nH]c2ccccc12)C1CCCCCC1	inactive: -11.7%	
CCOC(=O)c1c(NC(=O)c2cc(OCC)c(OCC)c(OCC)c2)sc2c1CCCCC2	inactive: -12.7%	
COc1ccc(-c2cc(C(=O)NC(C)c3ccccc3)c3cc(C(C)C)ccc3n2)cc1 (centres undefined)	inactive: -13.1%	
Cc1ccc(CNC(=O)Cn2c(=O)ccc3cc(S(=O)(=O)N4CCC(C)CC4)ccc32)cc1	inactive: -16.2%	
O=C(Nc1ccccc1C(F)(F)F)c1cc(-c2ccc3c(c2)OCCO3)on1	inactive: -0.127%	
CCN(CC)CCNC(=O)C(=O)NCC(c1cccnc1)N1CCN(c2ccc(F)cc2)CC1 (centres undefined)	inactive: -4.64%	

SMILES	activation	Potency
CCc1ccc(C2c3c(oc4ccc(F)cc4c3=O)C(=O)N2CCc2ccc(OC)cc2)cc1 (centres undefined)	inactive: -18.5%	
COc1ccc(S(=O)(=O)NCCc2sc(-c3cccnc3)nc2C)c(F)c1	inactive: -20.6%	
CC1CCc2c(sc3nnn(CCCCOc4ccc(Cl)cc4)c(=O)c23)C1 (centres undefined)	inactive: -14.1%	
COc1ccc(CNCCCSc2nnnn2-c2ccccc2)cc1	inactive: -5.61%	
CCOCCCNC(=O)c1cc(Sc2cccc(Cl)c2)nc2ccccc12	inactive: -32.9%	
COc1ccc(-c2cn3nc(N4CCCC(C(=O)Nc5cccc(OC)c5)C4)sc3n2)cc1 (centres undefined)	inactive: -11.6%	
COc1cc2c(cc1OC)n(CC(=O)c1cccc(Cl)c1)c(=O)n1nc(CCn3nc(C)cc3C)nc21	inactive: -6.46%	
Cc1ccc(Nc2sc(C(=O)c3ccccc3)c(N)c2C(=O)Nc2ccc(Cl)cc2)cc1	inactive: 2.02%	
Cc1ccc(CC(=O)Nc2ccc3c(c2)N(C)C(=O)c2ccccc2S3)cc1	inactive: -15.2%	
O=C(NCc1cccnc1)C(=O)NCC(c1cccnc1)N1CCN(c2ccc(F)cc2)CC1 (centres undefined)	inactive: -13.8%	
COc1cccc(C(=O)N2c3ccc(C)cc3C(C)(c3ccccc3)CC2(C)C)c1 (centres undefined)	inactive: 6.4%	
COc1ccc(C2NC(=O)NC(C)=C2C(=O)Nc2ccccc2)cc1OC (centres undefined)	inactive: 14.4%	
Cc1ccccc1C(=O)Nc1sc2c(c1C(=O)N1CCCCC1)CCC(C)C2 (centres undefined)	inactive: -9.46%	
O=C(CCN1C(=O)c2ccccc2Sc2ncccc21)Nc1ccc(F)cc1F	inactive: 7.19%	
CC(C)c1ccc(NC(=O)Cn2cc(S(=O)(=O)Cc3cccc(Cl)c3)c3ccccc32)cc1	inactive: -8.62%	
O=C(CCS(=O)(=O)c1nc(-c2cccs2)cc(C(F)(F)F)n1)Nc1cc(Br)ccc1O	inactive: -11.2%	
CCCOc1ccc(C(=O)Nc2ccc3oc(-c4cccc(Cl)c4Cl)nc3c2)cc1	inactive: -12.9%	
CCc1ccc(-c2cn3c(n2)sc2cc(C(=O)NCCC4=CCCCC4)ccc23)cc1	inactive: -17.3%	
CCOC(=O)c1ccc(NC(=O)CSc2cn(CC(=O)N3CCCC3)c3ccccc23)cc1	inactive: -14.1%	
